{"source": "ChEMBL document CHEMBL5606460", "about": "“ASAP - DENV-2 NS2B-NS3 protease fluorescence single point” (2024)", "biological_target": "Genome polyprotein (dengue virus type 2) (UniProt P29990)", "key": {"[1]": {"conditions": "Thailand/16681/1984, Concentration 25.0 uM, Number of replicates 1.0"}}, "note": "Out of some 2,000 compounds screened, about 110 (5.5%) showed an effect of 50% or more. The list shows a part of the results.", "data": [{"molecule": "Cc1cnccc1NC(=O)c1cccc(C(F)(F)F)n1", "values": [{"measurement": "inhibition", "setting": "Thailand/16681/1984, Concentration 49.5 uM, Number of replicates 2.0, Standard deviation 0.6191824281934856 %", "result": 0.024, "unit": "%"}, {"measurement": "inhibition", "setting": "Thailand/16681/1984, Concentration 99.01 uM, Number of replicates 2.0, Standard deviation 1.7542746720133946 %", "result": -0.908, "unit": "%"}, {"measurement": "inhibition", "setting": "Thailand/16681/1984, Concentration 198.0 uM, Number of replicates 2.0, Standard deviation 1.379232208237382 %", "result": -0.988, "unit": "%"}]}, {"molecule": "Cc1cnccc1NC(=O)c1cc(C2CC2)n(C)n1", "values": [{"measurement": "inhibition", "setting": "Thailand/16681/1984, Concentration 49.5 uM, Number of replicates 2.0, Standard deviation 1.4459585686715004 %", "result": -4.02, "unit": "%"}, {"measurement": "inhibition", "setting": "Thailand/16681/1984, Concentration 99.01 uM, Number of replicates 2.0, Standard deviation 1.900270069776252 %", "result": -4.04, "unit": "%"}, {"measurement": "inhibition", "setting": "Thailand/16681/1984, Concentration 198.0 uM, Number of replicates 2.0, Standard deviation 1.854374849146193 %", "result": -3.56, "unit": "%"}]}, {"molecule": "O=Cc1ccc(N2CCC(C(=O)N3CCN(c4ccccc4O)CC3)CC2)cc1", "values": [{"measurement": "inhibition", "setting": "[1]", "result": 15.6, "unit": "%"}]}, {"molecule": "CNC(=O)c1cc(Cl)ccc1NS(=O)(=O)Cc1ccccn1", "values": [{"measurement": "inhibition", "setting": "Thailand/16681/1984, Concentration 49.5 uM, Number of replicates 2.0, Standard deviation 0.01719051939583537 %", "result": -6.14, "unit": "%"}, {"measurement": "inhibition", "setting": "Thailand/16681/1984, Concentration 99.01 uM, Number of replicates 2.0, Standard deviation 1.0309591190468002 %", "result": -9.71, "unit": "%"}]}, {"molecule": "c1ccc2c([C@H]3CCN(Cc4c[nH]cn4)C3)c[nH]c2c1", "values": [{"measurement": "inhibition", "setting": "Thailand/16681/1984, Concentration 49.5 uM, Number of replicates 2.0, Standard deviation 0.24792192428217835 %", "result": -3.79, "unit": "%"}, {"measurement": "inhibition", "setting": "Thailand/16681/1984, Concentration 99.01 uM, Number of replicates 2.0, Standard deviation 0.3699758258218466 %", "result": -3.65, "unit": "%"}, {"measurement": "inhibition", "setting": "Thailand/16681/1984, Concentration 198.0 uM, Number of replicates 2.0, Standard deviation 0.08534231061273911 %", "result": -3.11, "unit": "%"}]}, {"molecule": "Cc1cc(CO)c2cccc(N3CCCNCC3)c2n1", "values": [{"measurement": "inhibition", "setting": "Thailand/16681/1984, Concentration 49.95 uM, Number of replicates 2.0, Standard deviation 0.05404827559340029 %", "result": -0.635, "unit": "%"}, {"measurement": "inhibition", "setting": "Thailand/16681/1984, Concentration 99.9 uM, Number of replicates 2.0, Standard deviation 1.5559145545209045 %", "result": 2.25, "unit": "%"}]}, {"molecule": "Cc1cc(CO)c2cccc(Cc3cccc(C(=O)NCc4ccc(S(N)(=O)=O)cc4)c3)c2n1", "values": [{"measurement": "inhibition", "setting": "Thailand/16681/1984, Concentration 49.95 uM, Number of replicates 2.0, Standard deviation 0.214877109175697 %", "result": 5.4, "unit": "%"}, {"measurement": "inhibition", "setting": "Thailand/16681/1984, Concentration 99.9 uM, Number of replicates 2.0, Standard deviation 0.2579967069502225 %", "result": 18, "unit": "%"}]}, {"molecule": "O=C(/C=C/c1ccccc1)C(=O)N1CCN(CCc2ccccc2)CC1", "values": [{"measurement": "inhibition", "setting": "Thailand/16681/1984, Concentration 49.5 uM, Number of replicates 2.0, Standard deviation 1.1058163895680901 %", "result": -0.075, "unit": "%"}, {"measurement": "inhibition", "setting": "Thailand/16681/1984, Concentration 99.01 uM, Number of replicates 2.0, Standard deviation 1.051850300329286 %", "result": 3.22, "unit": "%"}, {"measurement": "inhibition", "setting": "Thailand/16681/1984, Concentration 198.0 uM, Number of replicates 2.0, Standard deviation 0.9821847629012651 %", "result": 9.52, "unit": "%"}]}, {"molecule": "Cc1cc(CO)c2cccc(Cc3cccc(NC(=O)c4cc(C(F)F)nn4C)c3)c2n1", "values": [{"measurement": "inhibition", "setting": "Thailand/16681/1984, Concentration 49.95 uM, Number of replicates 2.0, Standard deviation 0.39387678731348036 %", "result": 0.181, "unit": "%"}, {"measurement": "inhibition", "setting": "Thailand/16681/1984, Concentration 99.9 uM, Number of replicates 2.0, Standard deviation 0.5891262882617602 %", "result": 4.33, "unit": "%"}]}, {"molecule": "Cc1c(C(=O)NCCn2cnnn2)ccc(O)c1NC(=O)c1ccncc1F", "values": [{"measurement": "inhibition", "setting": "Thailand/16681/1984, Concentration 49.5 uM, Number of replicates 2.0, Standard deviation 1.5154199046184862 %", "result": -2.03, "unit": "%"}, {"measurement": "inhibition", "setting": "Thailand/16681/1984, Concentration 99.01 uM, Number of replicates 2.0, Standard deviation 2.1579915683424105 %", "result": -1.61, "unit": "%"}, {"measurement": "inhibition", "setting": "Thailand/16681/1984, Concentration 198.0 uM, Number of replicates 2.0, Standard deviation 2.6898834373140286 %", "result": -0.852, "unit": "%"}]}, {"molecule": "CCCCCC(=O)N[C@H](C(=O)NCc1cccc(CN)c1)c1ccc(OCc2ccccc2)cc1", "values": [{"measurement": "inhibition", "setting": "Thailand/16681/1984, Concentration 49.5 uM, Number of replicates 2.0, Standard deviation 0.6286197397778024 %", "result": -3.44, "unit": "%"}, {"measurement": "inhibition", "setting": "Thailand/16681/1984, Concentration 99.01 uM, Number of replicates 2.0, Standard deviation 10.030102962525104 %", "result": 65.8, "unit": "%"}, {"measurement": "inhibition", "setting": "Thailand/16681/1984, Concentration 198.0 uM, Number of replicates 2.0, Standard deviation 0.2962336766184579 %", "result": 98.7, "unit": "%"}]}, {"molecule": "Cc1cc(CO)c2cccc(NC(=O)[C@@H](N)c3ccsc3)c2n1", "values": [{"measurement": "inhibition", "setting": "Thailand/16681/1984, Concentration 49.95 uM, Number of replicates 2.0, Standard deviation 0.5925041052888173 %", "result": 7.24, "unit": "%"}, {"measurement": "inhibition", "setting": "Thailand/16681/1984, Concentration 99.9 uM, Number of replicates 2.0, Standard deviation 1.8362903107997446 %", "result": 13.9, "unit": "%"}]}, {"molecule": "C[C@H]1CCC[C@H](C)N1CCNC(=O)C1CCN(c2ccc(C=O)cc2)CC1", "values": [{"measurement": "inhibition", "setting": "[1]", "result": 12.4, "unit": "%"}]}, {"molecule": "Cc1c(C2CCNCC2)cnn1Cc1nnc(-c2ccccc2)o1", "values": [{"measurement": "inhibition", "setting": "Thailand/16681/1984, Concentration 49.5 uM, Number of replicates 2.0, Standard deviation 2.3622904402078886 %", "result": -2.18, "unit": "%"}, {"measurement": "inhibition", "setting": "Thailand/16681/1984, Concentration 99.01 uM, Number of replicates 2.0, Standard deviation 1.8884466143634908 %", "result": -1.86, "unit": "%"}, {"measurement": "inhibition", "setting": "Thailand/16681/1984, Concentration 198.0 uM, Number of replicates 2.0, Standard deviation 1.0159128732525171 %", "result": -0.491, "unit": "%"}]}, {"molecule": "Cc1cc(CO)c2cccc(Cc3ccccc3C(=O)NCc3ccc(S(N)(=O)=O)cc3)c2n1", "values": [{"measurement": "inhibition", "setting": "Thailand/16681/1984, Concentration 49.95 uM, Number of replicates 2.0, Standard deviation 1.5695359944911405 %", "result": 4.94, "unit": "%"}, {"measurement": "inhibition", "setting": "Thailand/16681/1984, Concentration 99.9 uM, Number of replicates 2.0, Standard deviation 2.135114838489864 %", "result": 9.8, "unit": "%"}]}, {"molecule": "C[C@@H](Cc1c[nH]c2ccccc12)N1CC[C@H](c2c[nH]c3ccccc23)C1", "values": [{"measurement": "inhibition", "setting": "Thailand/16681/1984, Concentration 49.5 uM, Number of replicates 2.0, Standard deviation 1.5325996765679513 %", "result": 4.08, "unit": "%"}, {"measurement": "inhibition", "setting": "Thailand/16681/1984, Concentration 99.01 uM, Number of replicates 2.0, Standard deviation 1.612806815158123 %", "result": 8, "unit": "%"}, {"measurement": "inhibition", "setting": "Thailand/16681/1984, Concentration 198.0 uM, Number of replicates 2.0, Standard deviation 0.01571639122231834 %", "result": 12.5, "unit": "%"}]}, {"molecule": "Cc1cc(CO)c2cccc(Cc3ccccc3NC(=O)C[C@H]3CCCN3)c2n1", "values": [{"measurement": "inhibition", "setting": "Thailand/16681/1984, Concentration 49.95 uM, Number of replicates 2.0, Standard deviation 2.3110961437297597 %", "result": -1.74, "unit": "%"}, {"measurement": "inhibition", "setting": "Thailand/16681/1984, Concentration 99.9 uM, Number of replicates 1.0", "result": -1.01, "unit": "%"}]}, {"molecule": "O=Cc1ccc(N2CCC(C(=O)N3CCC[C@H](C(F)(F)F)C3)CC2)cc1", "values": [{"measurement": "inhibition", "setting": "[1]", "result": 17.3, "unit": "%"}]}, {"molecule": "CC(C)(CC(=O)Nc1cccc(CN)c1)NC(=O)OCc1ccccc1", "values": [{"measurement": "inhibition", "setting": "Thailand/16681/1984, Concentration 49.5 uM, Number of replicates 2.0, Standard deviation 0.39081272196345046 %", "result": -3.14, "unit": "%"}, {"measurement": "inhibition", "setting": "Thailand/16681/1984, Concentration 99.01 uM, Number of replicates 2.0, Standard deviation 0.20295410290675317 %", "result": -2.7, "unit": "%"}, {"measurement": "inhibition", "setting": "Thailand/16681/1984, Concentration 198.0 uM, Number of replicates 2.0, Standard deviation 0.7497565258938735 %", "result": -1.21, "unit": "%"}]}, {"molecule": "Cc1cc(CO)c2cccc(Cc3cccc(NC(=O)CCC4CCNCC4)c3)c2n1", "values": [{"measurement": "inhibition", "setting": "Thailand/16681/1984, Concentration 49.95 uM, Number of replicates 2.0, Standard deviation 1.9905342893580933 %", "result": 36.1, "unit": "%"}, {"measurement": "inhibition", "setting": "Thailand/16681/1984, Concentration 99.9 uM, Number of replicates 2.0, Standard deviation 0.13016565259146895 %", "result": 90.2, "unit": "%"}]}]}
